Source: the supplement of paper PMC9938546
Counter-ions that a name gives are not always drawn. This is one part of the list. Many values rest on one well or one pass, so single values are uncertain.

System: HCT116-GFP
Assay: HCT116-GFP viability (GFP intensity) relative to untreated control, monoculture; higher = less cancer cell killing
Conditions: culture: HCT116-GFP monoculture; 10 µM; 72 h
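Also: viability estimated indirectly by image-based GFP quantification with live-cell imaging of the constitutively GFP-expressing human colorectal cancer line, no immune cells added.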

| SMILES | HCT116-GFP viability [%] |
| --- | --- |
| CCCC(CCC)C(=O)O [Valproic acid] | 78.8 |
| Cc1onc(-c2ccccc2)c1C(=O)N[C@@H]1C(=O)N2[C@@H]1SC(C)(C)[C@@H]2C(=O)O [Oxacillin sodium] | 95.8 |
| O=C(O)CNC(=O)C(CS)Cc1ccccc1 (centres undefined) [Thiorphan] | 106 |
| CN(C)CCC(c1ccc(Cl)cc1)c1ccccn1 (centres undefined) [Chlorpheniramine maleate] | 89.5 |
| COc1cc(N)c(Cl)cc1C(=O)NC1CCN(CCCOc2ccc(F)cc2)CC1OC (centres undefined) [Cisapride] | 77.3 |
| COC1=CC(=O)C[C@@H](C)[C@]12Oc1c(Cl)c(OC)cc(OC)c1C2=O [Griseofulvin] | 61.1 |
| COC(=O)Nc1nc2cc(C(=O)c3ccc(F)cc3)ccc2[nH]1 [Flubendazol] | 8.36 |
| O=C(O[C@@H]1C[C@@H]2C[C@H]3C[C@H](C1)N2CC3=O)c1c[nH]c2ccccc12 [Dolasetron mesilate] | 97.3 |
| CC(C)(C)NC(=O)[C@@H]1CN(Cc2cccnc2)CCN1C[C@@H](O)C[C@@H](Cc1ccccc1)C(=O)N[C@H]1c2ccccc2C[C@H]1O [Indinavir sulfate] | 45.3 |
| CC(C)(C)NCC(O)c1ccc(O)c(CO)c1 (centres undefined) [Salbutamol] | 87.8 |
| Cc1c(OCC(F)(F)F)ccnc1C[S+]([O-])c1nc2ccccc2[nH]1 (centres undefined) [Lansoprazole] | 98.8 |
| Cn1c(=O)c2c(ncn2C)n(C)c1=O [Caffeine] | 103 |
| O=C(O)c1cc(=O)c2c(OCC(O)COc3cccc4oc(C(=O)O)cc(=O)c34)cccc2o1 [Cromolyn disodium salt] | 97.8 |
| Cc1ccc(O)c([C@H](CCN(C(C)C)C(C)C)c2ccccc2)c1 [Tolterodine tartrate] | 29.3 |
| C=CCc1ccccc1OCC(O)CNC(C)C (centres undefined) [Alprenolol hydrochloride] | 107 |
| NC[C@H]1CC[C@H](C(=O)O)CC1 [Tranexamic acid] | 104 |
| CCCCOc1ccc(CC(=O)NO)cc1 [Bufexamac] | 106 |
| CC(=O)OC(C)C[N+](C)(C)C (centres undefined) [Methacholine chloride] | 103 |
| CCSc1ccc2c(c1)N(CCCN1CCN(C)CC1)c1ccccc1S2 [Thiethylperazine dimalate] | 47.6 |
| Cc1c(O)cccc1C(=O)N[C@@H](CSc1ccccc1)[C@H](O)CN1C[C@H]2CCCC[C@H]2C[C@H]1C(=O)NC(C)(C)C [Nelfinavir mesylate] | 46.6 |
| CN(C)CCC(c1ccccc1)c1ccccn1 (centres undefined) [Pheniramine maleate] | 100 |
| CCN(CCCc1ccccc1)CCCc1ccccc1 [Alverine citrate salt] | 98.2 |
| O=P(O)(O)C(O)(Cc1cccnc1)P(=O)(O)O [Risedronic acid monohydrate] | 45.5 |
| CCN(CC)C(=O)N1CCN(C)CC1 [Diethylcarbamazine citrate] | 91 |
| C=CC[N@@+]12CC[C@@]34c5ccccc5N5/C=C6/[C@H]7C[C@H]8[C@@]9(CC[N@@+]8(CC=C)C/C7=C/CO)c7ccccc7N(/C=C(/[C@@H](C[C@@H]31)/C(=C\CO)C2)[C@H]54)[C@@H]69 [Alcuronium chloride] | 90.2 |

| SMILES | HCT116-GFP viability [%] |
| --- | --- |
| CCCC(C(=O)OCCN(CC)CC)(c1ccccc1)c1ccccc1 [Proadifen hydrochloride] | 89 |
| Clc1ccccc1C(c1ccccc1)(c1ccccc1)n1ccnc1 [Clotrimazole] | 42.1 |
| Clc1ccc(COC(Cn2ccnc2)c2ccc(Cl)cc2Cl)cc1 (centres undefined) [Econazole nitrate] | 56.6 |
| CNC1(C)C2CCC(C2)C1(C)C (centres undefined) [Mecamylamine hydrochloride] | 94.7 |
| C=C(NC(=O)C(=C)NC(=O)c1csc(C2=N[C@@H]3c4csc(n4)[C@H]4NC(=O)c5csc(n5)[C@H]([C@](C)(O)[C@@H](C)O)NC(=O)[C@H]5CSC(=N5)/C(=C/C)NC(=O)[C@H]([C@@H](C)O)NC(=O)c5csc(n5)[C@]3(CC2)NC(=O)[C@H](C)NC(=O)C(=C)NC(=O)[C@H](C)NC(=O)[C@H]([C@@H](C)CC)N[C@@H]2C=Cc3c([C@H](C)O)cc(nc3[C@H]2O)C(=O)O[C@@H]4C)n1)C(N)=O [Thiostrepton] | 2.37 |
| CC(=C(CCO)SSCC1CCCO1)N(C=O)Cc1cnc(C)nc1N (stereo in doubt) [Fursultiamine Hydrochloride] | 113 |
| CCC(C)(CN(C)C)OC(=O)c1ccccc1 (centres undefined) [Amyleine hydrochloride] | 108 |
| NC(=O)c1cccnc1 [Nicotinamide] | 111 |
| Cn1c(=O)c2c(ncn2CC(O)CO)n(C)c1=O (centres undefined) [Diprophylline] | 106 |
| CC(C)(Oc1ccc(C2CC2(Cl)Cl)cc1)C(=O)O (centres undefined) [Ciprofibrate] | 106 |
| CC1=C(C(=O)O)N2C(=O)[C@@H](NC(=O)[C@H](N)c3ccc(O)cc3)[C@H]2SC1 [Cefadroxil] | 87.1 |
| C=CCN1CCCC1CNC(=O)c1cc2nn[nH]c2cc1OC (centres undefined) [Alizapride hydrochloride] | 112 |
| CNCC[C@@H](Oc1cccc2ccccc12)c1cccs1 [(R)-Duloxetine hydrochloride] | 62.8 |
| CC(CCc1ccc(O)cc1)NCCc1ccc(O)c(O)c1 (centres undefined) [Dobutamine hydrochloride] | 85.6 |
| Nc1ccc(S(N)(=O)=O)cc1 [Sulfanilamide] | 124 |
| CCC(C)(C)c1ccc(CC(C)CN2C[C@@H](C)O[C@@H](C)C2)cc1 (some centres undefined) [Amorolfine hydrochloride] | 83.6 |
| CC[C@]12CCCN3CCc4c(n(c5ccccc45)[C@@](O)(C(=O)OC)C1)[C@@H]32 [Vincamine] | 92.8 |
| CC[C@@]1(O)C(=O)OCc2c1cc1n(c2=O)Cc2cc3c(CN(C)C)c(O)ccc3nc2-1 [Topotecan] | 2.84 |
| Nc1nnc(-c2cccc(Cl)c2Cl)c(N)n1 [Lamotrigine] | 104 |
| Clc1cc(Cl)c(OCC#CI)cc1Cl [Haloprogin] | 4.26 |
| Nc1nc(=O)[nH]cc1F [Flucytosine] | 87.9 |
| Cc1cccc(C)c1NC(=O)CN1CCN(CCCC(c2ccc(F)cc2)c2ccc(F)cc2)CC1 [Lidoflazine] | 87.4 |
| CC(=O)O[C@]1(C(C)=O)CC[C@H]2[C@@H]3C=C(C)C4=CC(=O)CC[C@]4(C)[C@H]3CC[C@@]21C [Megestrol acetate] | 97.9 |
| CC(C)(C)NCC(O)COc1cccc2c1CC(O)C(O)C2 (centres undefined) [Nadolol] | 102 |
| CCOCCn1c(N2CCCN(C)CC2)nc2ccccc21 [Emedastine] | 98.6 |

| SMILES | HCT116-GFP viability [%] |
| --- | --- |
| CC[C@H](C)C(=O)O[C@H]1C[C@H](O)C=C2C=C[C@H](C)[C@H](CC[C@@H](O)C[C@@H](O)CC(=O)O)[C@H]21 [Pravastatin] | 93.4 |
| Cc1cccn2c(=O)c(-c3nnn[nH]3)cnc12 [Pemirolast potassium] | 97.2 |
| CC(=O)NC[C@H]1CN(c2ccc(N3CCOCC3)c(F)c2)C(=O)O1 [Linezolid] | 83.4 |
| Cc1nccn1CC1CCc2c(c3ccccc3n2C)C1=O (centres undefined) [Ondansetron Hydrochloride] | 95.8 |
| COc1ccc2c(c1)c(CC(=O)OCC(=O)O)c(C)n2C(=O)c1ccc(Cl)cc1 [Acemetacin] | 93.6 |
| CCCCC1C(=O)N(c2ccccc2)N(c2ccccc2)C1=O [Phenylbutazone] | 85.9 |
| CCCCOC(=O)c1ccc(O)cc1 [Butylparaben] | 92 |
| CCCc1nc2c(C)cc(-c3nc4ccccc4n3C)cc2n1Cc1ccc(-c2ccccc2C(=O)O)cc1 [Telmisartan] | 89.1 |
| N=C(N)N1CCc2ccccc2C1 [Debrisoquin sulfate] | 107 |
| CC(=O)/N=c1/sc(S(N)(=O)=O)nn1C [Methazolamide] | 86.6 |
| COCCCOc1ccnc(C[S+]([O-])c2nc3ccccc3[nH]2)c1C (centres undefined) [Rabeprazole Sodium salt] | 95.8 |
| O=C(O)Cc1cc(I)c(Oc2ccc(O)c(I)c2)c(I)c1 [Tiratricol, 3,3',5-triiodothyroacetic acid] | 67 |
| CNCC[C@@H](Oc1ccccc1C)c1ccccc1 [Tomoxetine hydrochloride] | 127 |
| O=C(CCCCC(=O)Nc1c(I)cc(I)c(C(=O)O)c1I)Nc1c(I)cc(I)c(C(=O)O)c1I [Iodipamide] | 101 |
| Cc1c(F)c(N2CCNC(C)C2)cc2c1c(=O)c(C(=O)O)cn2C1CC1 (centres undefined) [Grepafloxacin] | 91.2 |
| CC(=O)OCC(=O)[C@@]12OC3(CCCC3)O[C@@H]1C[C@H]1[C@@H]3CCC4=CC(=O)C=C[C@]4(C)[C@@]3(F)[C@@H](O)C[C@@]12C [Amcinonide] | 96.5 |
| N=C(N=C(N)N)N1CCOCC1 [Moroxidine hydrochloride] | 119 |
| CCCC(=O)Nc1ccc(OCC(O)CNC(C)C)c(C(C)=O)c1 (centres undefined) [Acebutolol hydrochloride] | 91 |
| CN1[C@@H]2CC[C@H]1C[C@@H](OC(c1ccccc1)c1ccccc1)C2 [Benztropine mesylate] | 102 |
| CC(=O)Nc1ccc(OCC(O)CNC(C)C)cc1 (centres undefined) [Practolol] | 100 |
| O=C(Nc1ccccc1)OCC(CN1CCCCC1)OC(=O)Nc1ccccc1 (centres undefined) [Diperodon hydrochloride] | 99.3 |
| Cc1ccc(C)c(OCCCC(C)(C)C(=O)O)c1 [Gemfibrozil] | 101 |
| O=C(CCCN1CCC(O)(c2ccc(Cl)cc2)CC1)c1ccc(F)cc1 [Haloperidol] | 89.9 |
| NC(=O)c1ccc[n+]([C@@H]2O[C@H](COP(=O)([O-])OP(=O)(O)OC[C@H]3O[C@@H](n4cnc5c(N)ncnc54)[C@H](O)[C@@H]3O)[C@@H](O)[C@H]2O)c1 [Nadide] | 99.8 |
